Reference: PubChem BioAssay AID624417 (National Center for Advancing Translational Sciences (NCATS), 2012)
Hit rate of the full screen: of about 410,000 compounds, about 6,400 (1.6%) were called active. Inconclusive means that the source gave no clear call. Such entries were picked first, then a sample of the others. The call rests on the fitted dose curve; in most records, active means well fitted inhibition curve with a large enough effect; inconclusive means small, poorly fitted or top-dose-only effect; inactive means no such curve, though single readings can be large or run the other way. Potencies of inconclusive entries are left out as doubtful fits.

target: Glucagon-like peptide 1 receptor (Homo sapiens) (UniProt P43220); experiment: qHTS of GLP-1 Receptor Inverse Agonists (Inhibition Mode); conditions: HEK293 GLP-1R CRE-luciferase, luminescence, 24 h, GLP-1R form is constitutively active; activity change, negative = inhibition: at 38.3 µM (top of the series) unless noted; further: nearly all actives have a fitted effect of over 55% in size
Method in brief: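 HEK293 cells stably co-expressing a cAMP-responsive luciferase reporter and constitutively active GLP-1R were seeded, incubated 12 h, then exposed to compounds for 24 h at 37 C. Luminescence was read 12 min after detection reagent; inverse agonists lower signal.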
On the % scale 0 is the no-effect control and ±100 the full control effect; potency means the concentration at half of the fitted maximal effect; tags describe the fitted curve by direction and shape.

Sequence of UniProt P43220 (P43220 whole entry, looked up): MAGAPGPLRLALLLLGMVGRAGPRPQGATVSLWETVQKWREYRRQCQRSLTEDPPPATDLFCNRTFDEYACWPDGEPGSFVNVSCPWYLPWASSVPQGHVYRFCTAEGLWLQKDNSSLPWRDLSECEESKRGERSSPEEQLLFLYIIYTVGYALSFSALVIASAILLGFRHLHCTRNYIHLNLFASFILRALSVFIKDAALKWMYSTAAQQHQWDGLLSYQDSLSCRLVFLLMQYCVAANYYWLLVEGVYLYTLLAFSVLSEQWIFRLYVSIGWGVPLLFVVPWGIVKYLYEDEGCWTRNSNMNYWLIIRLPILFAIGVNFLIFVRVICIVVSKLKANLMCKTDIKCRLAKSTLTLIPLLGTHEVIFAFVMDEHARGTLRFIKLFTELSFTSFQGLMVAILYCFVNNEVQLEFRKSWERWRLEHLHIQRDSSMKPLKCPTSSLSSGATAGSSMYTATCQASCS

SMILES | Potency | activity change, negative = inhibition
CCOC(=O)c1c(C)[nH]c(C(=O)N/N=C/c2cccc(OC)c2)c1C | inconclusive [inhibitor, partial curve, poor fit] | 
CCCCOc1ccc(C(=O)N/C(=C/C=C/c2ccccc2)C(=O)NC)cc1 | inconclusive [inhibitor, partial curve, poor fit] | 
O=C(Nc1ccc(C(F)(F)F)cc1)C1(c2ccccc2)CC1 | inconclusive [inhibitor, partial curve, poor fit] | 
Cc1c(Cl)ccc2c(C(O)CBr)cc(-c3ccccc3)nc12 (configuration not stated) | inconclusive [inhibitor, partial curve, poor fit] | 
Cc1ccc(S(=O)(=O)N2CCN(CC(=O)Nc3ccc([N+](=O)[O-])cc3)CC2)cc1C | inconclusive [inhibitor, single point] | 
CCN1CCN(CCCNC(=O)c2cc3c(s2)-c2ccccc2OC3)CC1 | inconclusive [inhibitor, partial curve, poor fit] | 
O=C(Nc1cccc(F)c1)Nc1ccc(Cl)cn1 |  | inactive: 12%
O=C(CN1C(=O)COc2ccc(S(=O)(=O)N3CCCC3)cc21)N1CCN(c2ccccc2)CC1 |  | inactive: -16.2%
COc1ccc(C2/C=C\CC(OCc3ccccc3)CC(=O)N2Cc2cccc(F)c2)cc1 (configuration not stated) | inconclusive [inhibitor, single point] | 
CNC(=S)NNc1nncc2ccccc12 | inconclusive [inhibitor, single point] | 
CCc1cc2c(NCCN3CCCCC3)ncnc2s1 | inconclusive [inhibitor, single point] | 
O=C1CC(=C(c2ccccc2)c2ccccc2)C(=O)N1CCCCN1CCN(c2cccc(Cl)c2)CC1 | inconclusive [inhibitor, full curve, poor fit] | 
Cc1ccccc1C1=C/C(=C(\SS/C(C(=O)c2ccc(OCC(=O)O)c(Cl)c2Cl)=C2\C=C(c3ccccc3C)SS2)C(=O)c2ccc(OCC(=O)O)c(Cl)c2Cl)SS1 | inconclusive [inhibitor, single point] | 
CCOC(=O)c1cc(C#N)c(NCc2ccccc2)nc1C |  | inactive: 0%
CCOC(=O)c1cccc(NC(=O)C(C)n2nc(C)c3c(C)n(-c4ccccc4)nc3c2=O)c1 (configuration not stated) | inconclusive [inhibitor, single point] | 
Cc1ccc(NC(=O)c2cc(C(=O)c3cc(Cl)ccc3O)cn(-c3ccc(C)cc3)c2=O)cc1 | inconclusive [inhibitor, full curve, poor fit] | 
COc1cc(/C=C/C(=O)CC(=O)/C=C/c2ccc(O)c(OC)c2)ccc1O |  | inactive: -7.71%
COc1ccc(-c2[nH]c(-c3ccc(O)cc3)nc2-c2ccccc2)cc1 | inconclusive [inhibitor, single point] | 
O=C(CCl)NC(Cc1ccccc1)C(=O)OCC(=O)c1ccc(-c2ccccc2)cc1 (configuration not stated) | inconclusive [inhibitor, partial curve, poor fit] | 
CC(C)Nc1nc(-c2ccccc2)nnc1-c1ccccc1 | inconclusive [inhibitor, single point] | 
CN(C)CC(C)(C)CNS(=O)(=O)c1ccc(Cl)c(Cl)c1 | inconclusive [inhibitor, partial curve, poor fit] | 

SMILES | Potency | activity change, negative = inhibition
O=C(NCc1ccccc1)C(C1CC1)n1c(CSCCOc2ccccc2)nc2ccccc21 (configuration not stated) | inconclusive [inhibitor, single point] | 
COc1cc(/C=C2\SC(N)=NC2=O)ccc1O | inconclusive [inhibitor, partial curve, poor fit] | 
N#C/C(=C\C=C\c1ccccc1[N+](=O)[O-])C(=O)NCc1ccccc1 | inconclusive [inhibitor, single point] | 
COc1ccc(NS(=O)(=O)c2cccc(C(=O)NCc3ccccc3CN3CCCC3)c2)cc1 | inconclusive [inhibitor, partial curve, poor fit] | 
CCOC(=O)c1c(-c2cccc([N+](=O)[O-])c2)csc1NC(=O)C1CCCCC1 | inconclusive [inhibitor, full curve, poor fit] | 
Cc1ccc(/C=N/NC(=O)c2cc(-c3cccnc3)nc3ccccc23)cc1 | inconclusive [inhibitor, full curve, poor fit] | 
O=[N+]([O-])c1ccccc1CN1CCN(S(=O)(=O)c2ccccc2)CC1 | inconclusive [inhibitor, partial curve, poor fit] | 
COC(=O)C1CCN(c2nc3ccccc3nc2C(C#N)C(=O)NCCc2ccccc2)CC1 (configuration not stated) |  | inactive: -14.5%
COc1ccc(S(=O)(=O)N(C)CC(=O)Nc2ccccc2OC)cc1C | inconclusive [inhibitor, partial curve] | 
O=C(c1ccc(CS(=O)c2cccc(Cl)c2)o1)N1CCOCC1 (configuration not stated) |  | inactive: -14%
COC(=O)c1cccc(CN2C(=O)C(C)Oc3ccc(C)cc32)c1 (configuration not stated) | inconclusive [inhibitor, partial curve, poor fit] | 
Cc1ccccc1NC(=O)c1cc(S(=O)(=O)c2ccccc2)ccc1Cl | inconclusive [inhibitor, partial curve, poor fit] | 
O=C(NCc1ccccc1)C1c2ccccc2OCC(=O)N1C1CC1 (configuration not stated) |  | inactive: 17.3%
COc1ccc(OC)c(S(=O)(=O)NCC(c2ccc(N(C)C)cc2)N2CCOCC2)c1 (configuration not stated) |  | inactive: 11.3%
COc1ccccc1NS(=O)(=O)c1ccc(C(=O)NCCCN2CCOCC2)cc1 |  | inactive: -3.03%
O=C(COc1ccccc1)Nc1nc2c(s1)CCCC2 | inconclusive [inhibitor, single point] | 
COc1ccc(N(CC(=O)NN=C2CCCCCCC2)S(=O)(=O)c2ccccc2)cc1Cl | inconclusive [inhibitor, single point] | 
Cc1cccc(CS(=O)(=O)c2nnc([C@H](Cc3ccccc3)NC(=O)OC(C)(C)C)o2)c1 | inconclusive [inhibitor, single point] | 
COC(=O)Cn1c(SCc2ccccc2)nc2ccccc21 |  | inactive: -4.96%
Cc1ccccc1COc1ccc(/C=N/NC(=O)c2nnn(-c3nonc3N)c2CN2CCC(C)CC2)cc1 | inconclusive [inhibitor, partial curve] | 
O=C(c1cccs1)N1CCC(c2nc3ccccc3s2)CC1 | inconclusive [inhibitor, single point] | 

SMILES | Potency | activity change, negative = inhibition
COC(=O)c1[nH]c2cc(OC)ccc2c1NC(=O)CN1CCN(c2cccc(C)c2)C(C)C1 (configuration not stated) | active: 8.91 µM | 
Clc1cccc(Cl)c1CSc1nnc(-c2sccc2-n2cccc2)o1 | inconclusive [inhibitor, single point] | 
Cc1csc(SCC(=O)Nc2cccc3nsnc23)n1 | inconclusive [inhibitor, single point] | 
COc1ccc(N(Cc2cccs2)C(=O)c2ccco2)cc1 | inconclusive [inhibitor, partial curve, poor fit] | 
OCC1(Cc2ccccc2)CCN(C2CCN(c3ccccc3F)CC2)CC1 | inconclusive [inhibitor, partial curve, poor fit] | 
CSc1ccccc1NC(=O)CN(c1cc(C)cc(C)c1)S(C)(=O)=O | inconclusive [inhibitor, single point] | 
CC(=O)c1cccc(NC(=O)NCCc2ccc(Cl)cc2)c1 | inconclusive [inhibitor, partial curve] | 
Cc1ccc(-n2c(=O)c3c(c4cc(C)ccc4n3C)n(CC(=O)Nc3ccc(F)cc3)c2=O)cc1 |  | inactive: 5.16%
CCn1c(SCC(=O)N/N=C/c2ccc(C)s2)nc2ccccc21 | inconclusive [inhibitor, partial curve, poor fit] | 
Cc1cccc(NC(=O)c2sc(-c3ccccc3)nc2-c2ccc([N+](=O)[O-])cc2)c1 | inconclusive [inhibitor, full curve, poor fit] | 
CCc1cccc(C)c1NC(=O)c1ccc2c(c1)CCN2S(=O)(=O)c1ccc(Cl)cc1 |  | inactive: -25.3%
COc1ccccc1N1CCN(C(=O)COc2ccc(C)cc2Br)CC1 | inconclusive [inhibitor, partial curve, poor fit] | 
CCOc1ccc(C2C(C#N)=C(N)SC(N)=C2C#N)c(OCC)c1 |  | inactive: 12.9%
COc1cc(C(=O)NCC(c2ccco2)S(=O)(=O)c2cccs2)cc(OC)c1OC (configuration not stated) |  | inactive: 19.2%
CCOC(=O)C1(Cc2cccc(OC)c2)CCN(Cc2cnc(SC)nc2)CC1 | inconclusive [inhibitor, single point] | 
O=C(CN(c1ccccc1)S(=O)(=O)c1ccccc1[N+](=O)[O-])Nc1cccnc1 | inconclusive [inhibitor, partial curve, poor fit] | 
COC(=O)N/N=C\c1ccccc1OC/C=C/c1ccccc1 | inconclusive [inhibitor, single point] | 
COC(=O)c1nn(-c2ccc(-c3ccccc3)cc2)cc1O | inconclusive [inhibitor, single point] | 
Cc1ccc(C(=O)N/C(=C/c2ccc(-c3cc(C(F)(F)F)ccc3Cl)o2)C(=O)NCc2cccnc2)cc1 | inconclusive [inhibitor, single point] | 
CC1CCCCN1Cc1c(O)ccc2c(=O)c(-c3nc4ccccc4s3)c(N)oc12 (configuration not stated) | inconclusive [inhibitor, partial curve, poor fit] | 
